In this series the test system is ATP. Description: switch fluorescence ratio, 500 uM ATP over buffer (Cy3 cluster intensity, sum of 5 cycles each) (fold (ratio)); higher = stronger signal-on switching upon ATP binding; sequences stand for … in TCGTCGGCAGCGTCAGATGTGTATAAGAGACAGTTTTTTTTTTTTTTTTTTTTTTTTT…TC. To be noted: aptamer strand: ATP DNA aptamer (quencher-CACCTGGGGGAGTATTGCGGAGGAAGG + anchor), 100 nM annealed; ATP concentration: 500 uM; one replicate. The method, boiled down: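 Imaging in selection buffer was followed by imaging after 15 min with 500 uM ATP at 22 °C, for Cy3-labelled switching-strand clusters annealed to 100 nM quencher-labelled ATP aptamer on a modified Illumina MiSeq flow-cell. Five of these buffer/ATP cycles ran, separated by NaOH stripping and re-annealing. The fluorescence ratio per cluster is summed target-cycle over summed buffer-cycle Cy3 intensity, averaged per switch-domain sequence; clusters outside 100-1000 RFU were removed.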

Sequences with one replicate were seen in a single cluster, so their values are uncertain.
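Note: ATP exposure 15 min at 22 °C before imaging.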

Consider ATGACTTAGG, for which the switch fluorescence ratio turned out to be 1.
The same measure for GCAGTTGTTG: 0.998; for TGCGTTGAGG: 1.02.
In the case of CCAATCAACA it was 1.04; in that of CTCAGGTGAA, 2.06; in that of TCATAGGAGT, 1.02.
In the case of ACACCTCCCG it was 1.25.
Turning to AAGCGAATCC, the switch fluorescence ratio was 1.15.
Turning to GACCTTAGGG, the switch fluorescence ratio amounted to 1.06.
The same measure for CCCCGTCGTA: 1; for CTTGAAGGT: 0.97.
In the case of CTTCGCGACG it was 1.24.
The same measure for ATATCAACCA: 0.998; for CAAGTGCGA: 1.07.
For the sequence TGGCAAAGAG, the switch fluorescence ratio amounted to 1.
On to GCAGATATGC, for which the switch fluorescence ratio was determined as 1.06.
The same measure for TGGTCGAACT: 0.996; for TTCTTTCACG: 0.992; for GGATAACCGC: 1.06.
As for TTCACGGCTT, the switch fluorescence ratio is 1.04.
In the case of ACTTGGGGTT it was 1.02.
In the case of TATTGCGTTG it was 1; in that of TGGGGAGACG, 0.966; in that of CCGAGGATCT, 1.03.
Consider ATCCACTGGT, for which the switch fluorescence ratio worked out at 1.04.
The same measure for CTAGGACTTT: 0.994.
In the case of CTTATGAAAG it was 0.989; in that of TATAAGCGG, 1.03.
As for GATCATTACT, the switch fluorescence ratio amounted to 0.989.
The same measure for ATGGTTTCCT: 0.986; for TATAGTTCCT: 1.02.
GCTTTATG: the switch fluorescence ratio is 0.98.
Regarding ATCGCATTTG, the switch fluorescence ratio was 1.
In the case of TAGCTGCGTT it was 0.999; in that of TAGGAAGCTA, 1; in that of TCGGGTCATA, 0.97.
As to GTTCGTATTA, the switch fluorescence ratio was determined as 1.01.
The same measure for TTTTCATAGT: 1.01; for GTTGTGCCGG: 1.09.
Regarding CTTTTTGCCA, the switch fluorescence ratio came out at 0.969.
In the case of TCCGAGAGTG it was 0.969; in that of TACGCTCCC, 1.15.
In the case of TGGTGCACAT it was 1.02; in that of CGTTTGACA, 1; in that of AACTGTCTTT, 0.999.
Consider GCAAGTCAGT, for which the switch fluorescence ratio was determined as 1.03.
In the case of AATCTCTGTA, the switch fluorescence ratio was determined as 1.05.
In the case of TGGTGTAGT it was 1.03; in that of GATGGATTG, 1.06.
As to CATTTTGGGT, the switch fluorescence ratio amounted to 0.989.
In the case of TTACAGTTAG it was 1.03; in that of GACGCGAGTA, 1.11; in that of ACTCTCCGAG, 1.02.
In the case of GACTCCCACT it was 1.71.
Regarding CGGGGCTTTT, the switch fluorescence ratio stood at 0.94.
In the case of TGTACGTGG it was 0.99; in that of TGTTACACTT, 1.04.
In the case of GAGATTTGTT it was 1; in that of TGTGGAAAAG, 0.995; in that of CCGATTTCTT, 0.969.
The same measure for TTCAGCCGGG: 1.04; for CAGTTGGATA: 0.99; for TACCCCGGCA: 1.11.
Turning to GAAAGTTCTA, the switch fluorescence ratio came to 1.02.
The same measure for GAGTCATGG: 0.989.
As for AACAATAGCA, the switch fluorescence ratio amounted to 0.937.
The same measure for ATGGATCACG: 1.04.
The same measure for GGGACCGAAA: 1.06.
In the case of TTTTATTAA it was 0.992; in that of TACAAAAAGT, 1.03; in that of TTGTTCTTGT, 1.01.
On to TACCAGGAAT, for which the switch fluorescence ratio turned out to be 0.995.
The same measure for TATCTACGTT: 1.09; for GGGCTTTTTG: 1.01.
In the case of GTGTACCCAT it was 1.08; in that of TTTAAAGACG, 1.12; in that of CCATTACAGC, 0.995.
In the case of GGCTCTAGAC it was 1.04.

For the origin of these results see the supplement of paper PMC10126150.
